Results as given in PubChem BioAssay (NCI).
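All cell lines were grown in 96-well plates and treated with compound for 48 hours. Here, GI50 denotes the concentration required for 50% inhibition of growth.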 The source holds more than one record for some entries. The list is limited to them. The source may hold further records. For some of these results: A record mostly stands for its own series of concentrations, not given here; some values may only mark the edge of a range. For some of these results: Values that stand side by side repeat one measurement across runs, samples, wells, individuals or studies. A tag in brackets gives the origin of a value. A, B and so on number the origins entry by entry.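 TGI marks complete inhibition of growth.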

Experiments:
Assay in all cases: growth of human tumour cells (NCI), 48 h
DU-145 prostate = test system: DU-145 prostate
RPMI-8226 leukemia = test system: RPMI-8226 leukemia
SNB-19 CNS = test system: SNB-19 CNS
HL-60(TB) leukemia = test system: HL-60(TB) leukemia
SR leukemia = test system: SR leukemia
CAKI-1 renal = test system: CAKI-1 renal
SK-MEL-28 melanoma = test system: SK-MEL-28 melanoma
RXF 393 renal = test system: RXF 393 renal
SK-MEL-2 melanoma = test system: SK-MEL-2 melanoma
UACC-62 melanoma = test system: UACC-62 melanoma
HOP-62 NSCLC = test system: HOP-62 NSCLC
NCI-H460 lung = test system: NCI-H460 lung
UACC-257 melanoma = test system: UACC-257 melanoma
MALME-3M melanoma = test system: MALME-3M melanoma
HOP-92 NSCLC = test system: HOP-92 NSCLC
SK-OV-3 ovarian = test system: SK-OV-3 ovarian
OVCAR-5 ovarian = test system: OVCAR-5 ovarian
EKVX NSCLC = test system: EKVX NSCLC
SN12C renal = test system: SN12C renal
PC-3 prostate = test system: PC-3 prostate
HCT-15 colon = test system: HCT-15 colon
UO-31 renal = test system: UO-31 renal
SK-MEL-5 melanoma = test system: SK-MEL-5 melanoma
BT-549 breast = test system: BT-549 breast
T-47D breast = test system: T-47D breast
HT29 colon = test system: HT29 colon
NCI-H23 lung = test system: NCI-H23 lung
SF-268 CNS = test system: SF-268 CNS
A549 NSCLC = test system: A549 NSCLC
ACHN renal = test system: ACHN renal
SNB-75 CNS = test system: SNB-75 CNS
NCI/ADR-RES ovarian = test system: NCI/ADR-RES ovarian
COLO 205 colon = test system: COLO 205 colon
MDA-MB-231 breast = test system: MDA-MB-231 breast
HCC-2998 colon = test system: HCC-2998 colon
HS 578T breast = test system: HS 578T breast
MCF7 breast = test system: MCF7 breast
IGROV1 ovarian = test system: IGROV1 ovarian
OVCAR-4 ovarian = test system: OVCAR-4 ovarian
OVCAR-8 ovarian = test system: OVCAR-8 ovarian
MOLT-4 leukemia = test system: MOLT-4 leukemia
HCT-116 colon = test system: HCT-116 colon
SF-539 CNS = test system: SF-539 CNS
KM12 colon = test system: KM12 colon

CCCCCCNCCCNc1c2ccccc2nc2cccc([N+](=O)[O-])c12
TGI (DU-145 prostate): 35.4 nM and 1.18 µM
TGI (RPMI-8226 leukemia): 9.05 nM and 405 nM
TGI (SNB-19 CNS): 1.32 µM and 118 nM
TGI (HL-60(TB) leukemia): 52.6 nM and 58.1 µM
TGI (SR leukemia): 3.76 nM and 13 µM

COc1ccc(C2c3c(-c4ccccc4)nn(-c4ccccc4)c3Oc3ncn4nc(CC#N)nc4c32)cc1OC (centres undefined)
GI50 (CAKI-1 renal): > 100 µM [sample A, 1 test] and 3.26 µM [sample B, mean of 2 tests]
GI50 (SK-MEL-28 melanoma): > 100 µM [sample A, 1 test] and 4.92 µM [sample B, mean of 2 tests]
TGI (RXF 393 renal): 93.5 µM [sample A, 1 test] and 9.1 µM [sample B, 1 test]
GI50 (SK-MEL-2 melanoma): > 100 µM [sample A, 1 test] and 5.24 µM [sample B, mean of 2 tests]
TGI (UACC-62 melanoma): > 100 µM [sample A, 1 test] and 7.22 µM [sample B, mean of 2 tests]
GI50 (DU-145 prostate): > 100 µM [sample A, 1 test] and 3.59 µM [sample B, mean of 2 tests]
TGI (HOP-62 NSCLC): > 100 µM [sample A, 1 test] and 7.8 µM [sample B, mean of 2 tests]
GI50 (NCI-H460 lung): > 100 µM [sample A, 1 test] and 9.3 µM [sample B, mean of 2 tests]
GI50 (UACC-257 melanoma): > 100 µM [sample A, 1 test] and 5.78 µM [sample B, mean of 2 tests]
TGI (MALME-3M melanoma): 81.5 µM [sample A, 1 test] and 6.45 µM [sample B, 1 test]
TGI (HOP-92 NSCLC): > 100 µM [sample A, 1 test] and 6.81 µM [sample B, 1 test]
GI50 (SK-OV-3 ovarian): > 100 µM [sample A, 1 test] and 3.81 µM [sample B, mean of 2 tests]
GI50 (OVCAR-5 ovarian): > 100 µM [sample A, 1 test] and 5.32 µM [sample B, mean of 2 tests]

CNC(=O)CN1CCC(Oc2cc3c(Nc4cccc(Cl)c4F)ncnc3cc2OC)CC1
TGI (EKVX NSCLC): 725 nM [sample A, mean of 2 tests] and > 10 µM [sample B, mean of 2 tests]

C/C=C/C1=CN2C(=O)c3cc(OC4OC(C)C(NC)C(C)(O)C4O)c(C)c(O)c3N=C[C@@H]2C1 (some centres undefined)
TGI (CAKI-1 renal): 112 nM and > 100 µM
GI50 (SN12C renal): 178 nM and < 10 nM
GI50 (PC-3 prostate): 169 nM and < 10 nM
GI50 (SK-MEL-28 melanoma): 185 nM and < 10 nM
TGI (SK-MEL-28 melanoma): 397 nM and < 10 nM
GI50 (HCT-15 colon): 269 nM and < 10 nM
GI50 (RXF 393 renal): 125 nM and < 10 nM
TGI (RXF 393 renal): 293 nM and < 10 nM
TGI (UO-31 renal): 383 nM and 35.5 nM
GI50 (SK-MEL-5 melanoma): 155 nM and < 10 nM
TGI (SK-MEL-5 melanoma): 384 nM and < 10 nM
GI50 (SK-MEL-2 melanoma): 216 nM and < 10 nM
TGI (SK-MEL-2 melanoma): 457 nM and < 10 nM
GI50 (EKVX NSCLC): 151 nM and < 10 nM
TGI (EKVX NSCLC): 550 nM and 45.4 µM
TGI (UACC-62 melanoma): 250 nM and < 10 nM
GI50 (BT-549 breast): 187 nM and < 10 nM
TGI (BT-549 breast): 697 nM and < 10 nM
GI50 (T-47D breast): 237 nM and < 10 nM
GI50 (HT29 colon): 252 nM and < 10 nM
GI50 (HOP-62 NSCLC): 152 nM and < 10 nM
TGI (HOP-62 NSCLC): 640 nM and < 10 nM
TGI (NCI-H460 lung): 475 nM and 11.7 µM
TGI (RPMI-8226 leukemia): 438 nM and 15.4 µM
TGI (NCI-H23 lung): 398 nM and < 10 nM
TGI (SF-268 CNS): 294 nM and 15.1 nM
GI50 (UACC-257 melanoma): 162 nM and < 10 nM
TGI (UACC-257 melanoma): 575 nM and < 10 nM
GI50 (SNB-19 CNS): 114 nM and < 10 nM
TGI (SNB-19 CNS): 937 nM and 12.3 µM
GI50 (A549 NSCLC): 207 nM and < 10 nM
GI50 (MALME-3M melanoma): 169 nM and < 10 nM
TGI (MALME-3M melanoma): 512 nM and < 10 nM
TGI (ACHN renal): 813 nM and < 10 nM
GI50 (HOP-92 NSCLC): 123 nM and < 10 nM
TGI (HOP-92 NSCLC): 749 nM and < 10 nM
GI50 (SK-OV-3 ovarian): 323 nM and < 10 nM
GI50 (SNB-75 CNS): 150 nM and < 10 nM
TGI (SNB-75 CNS): 335 nM and < 10 nM
GI50 (NCI/ADR-RES ovarian): 269 nM and < 10 nM
GI50 (COLO 205 colon): 198 nM and < 10 nM
TGI (COLO 205 colon): 555 nM and < 10 nM
GI50 (MDA-MB-231 breast): 279 nM and < 10 nM
TGI (MDA-MB-231 breast): 967 nM and 64.1 nM
GI50 (HCC-2998 colon): 169 nM and < 10 nM
TGI (HCC-2998 colon): 429 nM and < 10 nM
GI50 (HS 578T breast): 156 nM and < 10 nM
TGI (HS 578T breast): 465 nM and 22 µM
GI50 (MCF7 breast): 131 nM and < 10 nM
GI50 (OVCAR-5 ovarian): 333 nM and < 10 nM
GI50 (IGROV1 ovarian): 132 nM and < 10 nM
TGI (IGROV1 ovarian): 783 nM and 25.1 µM
GI50 (OVCAR-4 ovarian): 299 nM and < 10 nM
GI50 (OVCAR-8 ovarian): 194 nM and < 10 nM
TGI (MOLT-4 leukemia): 386 nM and 31.1 µM
TGI (SR leukemia): 105 nM and 12.2 µM
GI50 (HCT-116 colon): 205 nM and < 10 nM
TGI (SF-539 CNS): 306 nM and < 10 nM
GI50 (KM12 colon): 165 nM and < 10 nM
TGI (KM12 colon): 582 nM and 26.4 nM
